Assay results reported in US20250179210A1, “ANTI-CEACAM5 ANTIBODIES AND CONJUGATES AND USES THEREOF” (Merck Patent GmbH, priority 2022, published 2025).

B1: ADC1-M (conjugate)
heavy: EVQLQESGPGLVKPSQTLSLTCTVSDGSVSRGGYYLTWIRQHPGKGLEWIGYIYYSGSTYFNPSLRSRVTMSVDTSKNQFSLKLSSVTAADTAVYYCARGIAVAPFDYWGQGTLVTVSSASTKGPSVFPLAPSSKSTSGGTAALGCLVKDYFPEPVTVSWNSGALTSGVHTFPAVLQSSGLYSLSSVVTVPSSSLGTQTYICNVNHKPSNTKVDKRVEPKSCDKTHTCPPCPAPEAAGGPSVFLFPPKPKDTLYITREPEVTCVVVDVSHEDPEVKFNWYVDGVEVHNAKTKPREEQYNSTYRVVSVLTVLHQDWLNGKEYKCKVSNKALPAPIEKTISKAKGQPREPQVYTLPPSREEMTKNQVSLTCLVKGFYPSDIAVEWESNGQPENNYKTTPPVLDSDGSFFLYSKLTVDKSRWQQGNVFSCSVMHEALHNHYTQKSLSLSPG
light: EIVLTQSPATLSVSPGERATLSCRTSQSVRSNLAWYQQKPGQAPRLLIYAASTRATGIPARFSGSGSGTEFTLTISSLQSEDFAVYYCQQYTNWPFTFGPGTKVDIKRTVAAPSVFIFPPSDEQLKSGTASVVCLLNNFYPREAKVQWKVDNALQSGNSQESVTEQDSKDSTYSLSSTLTLSKADYEKHKVYACEVTHQGLSSPVTKSFNRGEC
B2: ADC2-M (conjugate)
heavy: EVQLQESGPGLVKPSQTLSLTCTVSDGSVSRGGYYLTWIRQHPGKGLEWIGYIYYSGSTYFNPSLRSRVTMSVDTSKNQFSLKLSSVTAADTAVYYCARGIAVAPFDYWGQGTLVTVSSASTKGPSVFPLAPSSKSTSGGTAALGCLVKDYFPEPVTVSWNSGALTSGVHTFPAVLQSSGLYSLSSVVTVPSSSLGTQTYICNVNHKPSNTKVDKRVEPKSCDKTHTCPPCPAPEAAGGPSVFLFPPKPKDTLYITREPEVTCVVVDVSHEDPEVKFNWYVDGVEVHNAKTKPREEQYNSTYRVVSVLTVLHQDWLNGKEYKCKVSNKALPAPIEKTISKAKGQPREPQVYTLPPSREEMTKNQVSLTCLVKGFYPSDIAVEWESNGQPENNYKTTPPVLDSDGSFFLYSKLTVDKSRWQQGNVFSCSVMHEALHNHYTQKSLSLSPG
light: EIVLTQSPATLSVSPGERATLSCRTSQSVRSNLAWYQQKPGQAPRLLIYAASTRATGIPARFSGSGSGTEFTLTISSLQSEDFAVYYCQQYTNWPFTFGPGTKVDIKRTVAAPSVFIFPPSDEQLKSGTASVVCLLNNFYPREAKVQWKVDNALQSGNSQESVTEQDSKDSTYSLSSTLTLSKADYEKHKVYACEVTHQGLSSPVTKSFNRGECGGTLQSPP

What was measured:
[1] = tested on: human pancreatic, cell line derived xenograft model BxPC3; assay: Pancreatic cell line derived xenograft model BxPC3; type: in vivo, mouse; conditions: single i.v. treatment; ADC1-M 5 mg/kg, ADC2-M 5 mg/kg or 10 mg/kg
Protocol: Efficacy of ADC1-M and ADC2-M has been evaluated in the human pancreatic, cell line derived xenograft model BxPC3 (ATCC, CRL-1687). 5×10^6 BxPC3 cells were injected subcutaneously into the right flank of six to eight weeks old immunodeficient female mice (Hsd:Athymic Nude-Foxn1nu, Envigo). When tumors reached a mean volume of 85 mm^3, 10 mice/group were treated once intravenously with vehicle (saline solution) or ADC1-M (5 mg/kg; day 0) or with ADC2-M (5 mg/kg or 10 mg/kg; day 0). Tumor length (L) and width (W) were measured with calipers and tumor volumes were calculated using L×(W^2)/2.

LS174T = assay: Viability assay (Cell Titer-Glo); type: cell-based, human; conditions: Table 3; at the highest tested compound concentration
[2] = tested on: CEACAM5-negative MDA-MB-231 cells in co-culture with CEACAM5-positive SK-CO-1 cells; assay: Bystander assay; type: cell-based, human; conditions: for non-specific effect on MDA-MB-231 cells alone (only controls) / bystander effect against CEACAM5-negative MDA-MB-231 cells in the presence of CEACAM5-positive SK-CO-1: ADC concentration of 1 nM; for bystander effect against CEACAM5-negative MDA-MB-231 cells in the presence of CEACAM5-positive SK-CO-1: six days; for bystander effect compared to ADC SAR DM4: co-culture, 1 nM
[3] = tested on: human patient-derived gastric xenograft model GAPF313; assay: Gastric PDX mouse model GAPF313; type: in vivo
Protocol: Anti-tumor efficacy in vivo was evaluated in the human patient-derived gastric xenograft model GAPF313 (Shanghai LideBiotech CO., LTD). Tumor fragments were transplanted subcutaneously into the right flank of six to eight weeks old immunodeficient female mice (NU-Foxn1nu, Charles River). […] Tumor length (L) and width (W) were measured with calipers and tumor volumes were calculated using the formula L×(W^2)/2.
Anti-tumor efficacy of ADC1-M and ADC3-M in comparison to ADC SAR DM4 has been evaluated in the human GC xenograft model GAPF313. The study was performed at Lide Biotech (Shanghai). Six to eight weeks old immunodeficient female mice (Crl: NU-Foxn1nu) were transplanted subcutaneously in the right flank with GAPF313 tumor fragments. When tumors reached a mean volume of 176 mm^3 6 mice/group were treated intravenously every other week (3 cycles) with vehicle (saline solution) or with 4 mg/kg ADC1-M or ADC3-M or 4.7 mg/kg ADC SAR DM4. Tumor length (L) and width (W) were measured with calipers and tumor volumes were calculated using L×W^2/2.

SK-CO-1 = assay: Viability assay (Cell Titer-Glo); type: cell-based, human; conditions: Table 3; at the highest tested compound concentration
[4] = tested on: human pancreatic cell line derived xenograft model HPAF-II; assay: Pancreatic cell line derived xenograft model HPAF-II; type: in vivo, mouse; conditions: for anti-tumor effect: single i.v. treatment
Protocol: 5×10^6 HPAF-II cells were injected subcutaneously into the right flank of six to eight weeks old immunodeficient female mice (Hsd:Athymic Nude-Foxn1nu, Envigo). […] Tumor length (L) and width (W) were measured with calipers and tumor volumes were calculated using L×(W^2)/2.
Efficacy of ADC1-M and ADC3-M in comparison to ADC8 was evaluated in the human pancreatic adenocarcinoma, cell line-derived xenograft model HPAF-II (ATCC, CRL-1997). Six to eight weeks old immunodeficient female mice (Hsd:Athymic Nude-Foxn1nu, Envigo) were injected subcutaneously in the right flank with 5×10^6 HPAF-II cells. When tumors reached a mean volume of 150 mm^3, 10 mice/group were treated once intravenously with ADC1-M (1 mg/kg or 6 mg/kg) or with ADC3-M (1 mg/kg or 6 mg/kg) or with ADC8 (1 mg/kg or 6 mg/kg). Tumor length (L) and width (W) were measured with calipers and tumor volumes were calculated using L×W^2/2.

[5] = Pharmacokinetic study in human FcRn transgenic mice; conditions: for C0: back extrapolation; for t1/2: total antibody
MKN-45 = assay: Viability assay (Cell Titer-Glo); type: cell-based, human; conditions: Table 3; at the highest tested compound concentration
SNU-16 = assay: Viability assay (Cell Titer-Glo); type: cell-based, human; conditions: Table 3; at the highest tested compound concentration
MDA-MB-231 = assay: Viability assay (Cell Titer-Glo); type: cell-based, human; conditions: Table 3; for MDA-MB-231 maximal effect compared to untreated controls: at the highest tested compound concentration
[6] = tested on: human patient-derived CRC xenograft model COPF230; assay: CRC PDX mouse model COPF230; type: in vivo; conditions: for efficacy compared to ADC SAR DM4 in CRC PDX models (expected): COPF230 and REPF210
Protocol: Anti-tumor efficacy in vivo was evaluated in the human patient-derived CRC xenograft models COPF230 and REPF210 (Shanghai LideBiotech CO., LTD). Tumor fragments were transplanted subcutaneously into the right flank of six to eight weeks old immunodeficient female mice (NU-Foxn1nu, Charles River). […] Tumor length (L) and width (W) were measured with calipers and tumor volumes were calculated using the formula L×(W^2)/2.
Anti-tumor efficacy of ADC1-M and ADC3-M in comparison to ADC SAR DM4 was in the human CRC xenograft model COPF230. The study was performed at Lide Biotech (Shanghai). Six to eight weeks old immunodeficient female mice (Crl: NU-Foxn1nu) were transplanted subcutaneously in the right flank with COPF230 tumor fragments. When tumors reached a mean volume of 165 mm^3 6 mice/group were treated once intravenously with vehicle (saline solution) or with ADC1-M, ADC3-M or ADC SAR DM4 (each 6 mg/kg). Tumor length (L) and width (W) were measured with calipers and tumor volumes were calculated using L×W^2/2.

Molecule | anti-tumor effect [1] | LS174T maximal effect compared to untreated controls (LS174T) | non-specific effect on MDA-MB-231 cells alone (only controls) [2] | bystander effect against CEACAM5-negative MDA-MB-231 cells in the presence of CEACAM5-positive SK-CO-1 [2] | bystander effect compared to ADC SAR DM4 [2] | bystander effect compared to ADC SAR (expected) [2] | efficacy compared to ADC SAR DM4 (expected) [3] | SK-CO-1 maximal effect compared to untreated controls (SK-CO-1) | efficacy compared to ADC3 (expected) [4] | AUCinf ([5]; 3 mg/kg i.v., HuFcRn mice) [µg·h/mL] | AUClast ([5]; 3 mg/kg i.v., HuFcRn mice) [µg·h/mL] | Cl ([5]; 3 mg/kg i.v., HuFcRn mice) [mL/day/kg] | Tlast ([5]; 3 mg/kg i.v., HuFcRn mice) [h] | Vss ([5]; 3 mg/kg i.v., HuFcRn mice) [L/kg] | Vz ([5]; 3 mg/kg i.v., HuFcRn mice) [L/kg] | C0 ([5]; 3 mg/kg i.v., HuFcRn mice) [µg/mL] | t1/2 ([5]; 3 mg/kg i.v., HuFcRn mice) [h] | MKN-45 maximal effect compared to untreated controls (MKN-45) | SNU-16 maximal effect compared to untreated controls (SNU-16) | MDA-MB-231 maximal effect compared to untreated controls (MDA-MB-231) | also measured
B1 | significant anti-tumor effect | (−86%) | no non-specific effect | potent bystander effect | much more potent bystander effect | more potent bystander effects than ADC SAR | compare similarly favorably to ADC SAR DM4 | (−95%) | compare similarly favorably to ADC3 | 2590 | 2580 | 27.8 | 504 | 0.113 | 0.108 | 49.9 | 64.5 | (−96%) | (−97%) | (−71%) | anti-tumor effect ([3]; i.v. every other week (3 cycles), 4 mg/kg ADC1-M or ADC3-M, 4.7 mg/kg ADC SAR DM4): comparable and significant anti-tumor effect; anti-tumor effect ([4]; 1 mg/kg): minor and temporary anti-tumor effect; anti-tumor effect ([4]; 6 mg/kg): much stronger anti-tumor effect; %_Ext ([5]; 3 mg/kg i.v., HuFcRn mice, extrapolated part of AUCinf): 0.4%; IC50 (MDA-MB-231; n ≥ 3, CEACAM5 Negative, cut-off for potency reporting −50% effect, otherwise n/a): > 10 nM; efficacy compared to ADC SAR DM4 in CRC PDX models (expected) [6]: compare similarly favorably to ADC SAR DM4; anti-tumor effect ([6]; single i.v. treatment, 6 mg/kg): comparable and significant anti-tumor effect
B2 | significant anti-tumor effect | (−67%) | no non-specific effect | potent bystander effect | much more potent bystander effect | more potent bystander effects than ADC SAR | compare similarly favorably to ADC SAR DM4 | (−92%) | compare similarly favorably to ADC3 | 10200 | 8360 | 7.03 | 504 | 0.877 | 0.0802 | 56.1 | 190 | (−80%) | (−78%) | (−16%) | PK profile (plasma exposure, Cl, t½) ([5]; single iv administration of 3 mg/kg in transgenic mice): best PK profile; efficacy compared to ADC SAR DM4 in CRC PDX models (expected) [6]: compare similarly favorably to ADC SAR DM4
